# The supplement of paper PMC10126150
# Sequences with one replicate were seen in a single cluster, so their values are uncertain.
# Test system: ATP
# Assay: switch fluorescence ratio, 500 uM ATP over buffer (Cy3 cluster intensity, sum of 5 cycles each) (fold (ratio)); higher = stronger signal-on switching upon ATP binding; sequences stand for … in TCGTCGGCAGCGTCAGATGTGTATAAGAGACAGTTTTTTTTTTTTTTTTTTTTTTTTT…TC
# Conditions: aptamer strand: ATP DNA aptamer (quencher-CACCTGGGGGAGTATTGCGGAGGAAGG + anchor), 100 nM annealed; ATP concentration: 500 uM; one replicate
# How it was run: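 After annealing to 100 nM quencher-labelled ATP aptamer, Cy3-labelled switching-strand clusters on a modified Illumina MiSeq flow-cell were imaged in selection buffer. A second image followed after 15 min with 500 uM ATP at 22 °C, and five such buffer/ATP cycles were done, each separated by NaOH stripping and re-annealing. The fluorescence ratio, averaged per switch-domain sequence, is summed target-cycle over summed buffer-cycle Cy3 intensity per cluster, with clusters outside 100-1000 RFU excluded.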
# 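Further: ATP exposure 15 min at 22 °C before imaging.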
row,Sequence,switch fluorescence ratio
1,GGTGAGGCCG,0.974
2,GTTCGTGGGG,1.03
3,ACAGGTCAGG,1.07
4,CGAATTATTC,1.01
5,GGCACACTAG,0.994
6,CAAGGGGATC,1.85
7,AATACATATC,1.03
8,AACAACGAGG,0.989
9,AATTGGCGGA,0.999
10,GATGGCCGTA,1.06
11,CTGCTCGCTG,1.15
12,TGATACACAA,1.03
13,ATCATGATT,0.984
14,GCTCGAGTTT,1.05
15,CGTCGACGCA,1.04
16,AATGAGTAGC,1.01
17,AATTATCAAA,0.981
18,TATAAGTTTA,0.978
19,AAGCGAATTT,1.04
20,CTGTAGGTGA,1.1
21,TCAGATCGTG,0.972
22,TGTCAATCCG,1.02
23,AACAGTGGCG,1.06
24,ACCCGACCTG,1.02
25,TGTTTGCGCG,0.969
26,GTTCTAACTA,0.986

row,Sequence,switch fluorescence ratio
1,CGGGATTCGC,1.04
2,GTAGTATGTA,0.981
3,TGACCACATT,1.07
4,TTGTCATATT,1.03
5,TAACCGGGAC,1.24
6,GCAGATGTGC,1.02
7,ATGGCAGTTT,1
8,AGCAAATTTT,1.02
9,GTGTGAGGAC,1.02
10,AGTTTTTGAC,0.985
11,TTAGGACTGC,0.988
12,GCGTAGAGTT,1.06
13,CGAGCTATGA,1.09
14,GTAACCCGTG,0.992
15,TATTTGGAAC,1.02
16,TCTTCAGCGA,2.38
17,TAGGTTATT,0.96
18,TATATTTCAG,1.01
19,CAGAGGATTC,1.01
20,CGTAGTGGAG,1.04
21,ACTAAGTT,1.04
22,CCGCCCCCTT,1.11
23,CTTGAGGAAA,0.997
24,AGATTGAACC,1.05
25,GAGCCCAAGG,1.18
26,CTTATGAGGA,1.02

row,Sequence,switch fluorescence ratio
1,CCAATCGCCA,1.8
2,AACCTGAAAC,1.3
3,TGAGTGTCAA,0.972
4,TTGAGGCACC,0.917
5,ATTGGACTTA,1.07
6,GTGTCTCCTT,0.997
7,AGGAAAAG,0.98
8,CTGCAAAGTT,1.08
9,GCTCCAAGAT,3.16
10,ATGTCCGCAC,3.31
11,CAGATTGTGG,0.965
12,GAAAGATAGG,0.961
13,TACGGGTATT,1.04
14,TTAGGTTCTT,1.02
15,CGCATGCACC,1.75
16,CCAGAAGCGC,0.985
17,TAGGCAGCTG,1.02
18,TGCGGGACAG,1.03
19,CTGTTGCAGC,1.13
20,AGCAGAATGG,0.958
21,TCTTATGGTC,1.03
22,CGACCATTTT,1.03
23,AGAGGCATTG,1.05
24,CTGGAGTTA,1.21
25,AGACGTATGC,0.961
26,GACAGAGACA,0.995

row,Sequence,switch fluorescence ratio
1,TAGGTCCGGC,1.11
2,GCTGGAGACA,1.04
3,TGATATCAAA,0.995
4,ACGCAAAAGG,1.09
5,GCGCCAGGTA,1.09
6,TTTATGTACA,1.03
7,TAAAAACGCG,1.16
8,TGGGTTGACT,0.936
9,TGGGCAGGG,1.03
10,CACGGTGGCG,0.962
11,TTGTCAGGGA,1.04
12,TTCCCCGCTT,1.51
13,GGCGCCGAGT,0.972
14,AGAGTCCTAG,1
15,GTGGATATGC,1.01
16,AATTGAGCGT,1.03
17,TGAACGGAGC,1.06
18,AGCGGGGACC,1.02
19,ATGTTGTACA,1.02
20,ATCAGGGCTG,0.949
21,CATTCCATGA,1.05
22,AGCCGCAGCT,1.09
23,GTCCGTCC,0.994
24,CGGCAGCTT,1.17
25,ACTCCTGGG,1.24
26,ACCAAAGGCC,1.05

row,Sequence,switch fluorescence ratio
1,CGTACGATTA,1.05
2,TATTGAGATC,0.92
3,TTTGTCTTT,0.977
4,ATCTCTATTA,0.937
5,TGCTGCAG,1.04
6,GCGATAGGA,1.08
7,TTCAAATAT,1
8,GTTTAACCTC,1.03
9,CGCACTTGCT,1.08
10,TGTCGAATT,0.989
11,TGTATGTTGG,0.989
12,AACAGACGTG,1.02
13,TAATGCGGCG,0.984
14,TGCATTGGCG,0.982
15,AATGTATGAT,0.961
16,TGAGTAGTCG,0.956
17,ACAGACTCTC,1.09
18,GGCGGGGACT,1.01
19,CCAATTATAG,1.06
20,CGTTGCAACT,0.957
21,TCCTCTGGTC,1.92
22,ATATGAAGCA,0.982
23,TGGCGCACTT,1.05
24,TGCCGATGTG,1.03
25,TTTGCGCGGT,1
26,TCGGCTGGAC,1.34

row,Sequence,switch fluorescence ratio
1,CTCGGTGGCG,0.98
2,TACAGGGGTG,1.1
3,GACACAGATC,1.09
4,CGCTTTATAG,1.26
5,AACCCTGGCG,1.02
6,GCGATATGCG,1.05
7,CTACTAGTAC,1.29
8,GGAAGACCGT,1.01
9,CTGGACCATT,1.01
10,ACTACGGGGA,1.05
11,ATATGATCTT,0.981
12,AGGATGTCTT,0.984
13,GAACTTAACT,1.23
14,TAAACCCCTG,1.03
15,GGATCGGCGG,1.03
16,CGTCTGTGTC,0.998
17,TACGTGAGAG,1.07
18,ACGTTTTAGC,1
19,GTAATTGGTT,0.987
20,AGCTAGATAA,0.96
21,ATCCGTAGAG,1.16
22,TCGAGGACTG,0.938
23,GAGTCGGATA,1.01
24,GCCTACTTCT,1.02
25,TTTTCGCAGG,1.1
26,TTGAACCTGC,1.06

row,Sequence,switch fluorescence ratio
1,ATGAGAGCAG,0.981
2,GTAACGTTTC,1.06
3,GCAGTTTAT,0.965
4,CGGGCGTAAT,1.28
5,TGGGTCCTGG,0.95
6,GGCCGCTGAC,3.03
7,ATGGGATAGG,0.944
8,TAGTTGTGCT,0.975
9,GCAGGCTTTT,0.99
10,GGGTCGTGGT,1
11,TGCACAGAGG,1.04
12,TTGGTGGCT,0.916
13,AAAGACCAAT,1.01
14,GCACGGGTCA,1.07
15,CTCTTGAGAC,1.01
16,AGGCCCCGTT,0.986
17,TCTTGCCTTT,0.97
18,ACCGAGGAAT,1.12
19,GCTAAAGTTG,0.931
20,TTGGCGAGTG,0.952
21,TAACACATAC,1.56
22,CGATGGGCCC,1.04
23,GCGCGAATGG,1.15
24,GGGAAACCAG,0.993
25,CCTCAGGTAA,2.92
26,GCAAAGAGTA,0.988

row,Sequence,switch fluorescence ratio
1,GTTTTTATAC,1.03
2,AACTGCTTAT,0.972
3,TAAGACCTTA,1.07
4,TCCAGTCAGC,1.03
5,TTAACAAATG,1
6,CCGAAATGCG,3.56
7,GCAGCGTAAG,1.01
8,ACATGAAAGG,1.03
9,TCTGGGCTTC,1.03
10,AGTTGAAGCT,1.03
11,CTCTGAATGT,1.06
12,TTCACCAAGT,1.05
13,CCTGGATGGC,1.02
14,TCATTGCTAG,0.982
15,AGGAATCGAG,0.978
16,AACTAGTGTA,0.966
17,AGTGAGATCA,1.03
18,TGAGGCGGAG,0.997
19,CAGGAGGTTG,1
